For the first assay, the target named is human CB2 receptor (hCB2) (Homo sapiens, UniProt P34972). The experiment in a line: cell-based.
human CB2 receptor (hCB2), sequence (P34972 whole entry): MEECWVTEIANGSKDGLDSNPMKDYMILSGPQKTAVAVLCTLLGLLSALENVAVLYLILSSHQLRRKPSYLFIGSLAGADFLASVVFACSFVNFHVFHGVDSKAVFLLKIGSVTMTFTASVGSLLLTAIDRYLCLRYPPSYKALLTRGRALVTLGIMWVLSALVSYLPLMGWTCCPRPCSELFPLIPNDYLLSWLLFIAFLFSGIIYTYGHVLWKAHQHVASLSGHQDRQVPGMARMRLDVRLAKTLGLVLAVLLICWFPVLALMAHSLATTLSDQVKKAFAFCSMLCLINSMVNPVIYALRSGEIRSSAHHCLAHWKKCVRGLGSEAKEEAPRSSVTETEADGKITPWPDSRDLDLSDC
Details: not given
It is filed as cell-based.
The molecule `CNC(=O)[C@@H](NC(=O)c1nc(-c2ccccc2)n2c1CN(S(=O)(=O)C1CC1)CC2)C(C)(C)C` [Compound 100, (S)-7-(cyclopropylsulfonyl)-N-(3,3-dimethyl-1-(methylamino)-1-oxobutan-2-yl)-3-phenyl-5,6,7,8-tetrahydroimidazo[1,5-a]pyrazine-1-carboxamide] returned an EC50 of over 10000 nM.

With `CNC(=O)[C@@H](NC(=O)c1nc(-c2ccc(-c3ccccc3)cc2)n2c1CN(C)CC2)C(C)(C)C` [Compound 265, (S)-3-(biphenyl-4-yl)-N-(3,3-dimethyl-1-(methylamino)-1-oxobutan-2-yl)-7-methyl-5,6,7,8-tetrahydroimidazo[1,5-a]pyrazine-1-carboxamide], the EC50 is over 10000 nM. With `CCCC(CO)NC(=O)c1nc(-c2ccccc2)n2c1CN(C)CC2` (stereo not drawn) [Compound 233, N-(1-hydroxypentan-2-yl)-7-methyl-3-phenyl-5,6,7,8-tetrahydroimidazo[1,5-a]pyrazine-1-carboxamide], the EC50 is over 10000 nM.

Take `CCN1CCn2c(-c3ccccc3)nc(C(=O)N[C@@H](C)c3ccccc3)c2C1` [Compound 147, (S)-7-ethyl-3-phenyl-N-(1-phenylethyl)-5,6,7,8-tetrahydroimidazo[1,5-a]pyrazine-1-carboxamide]: the EC50 is over 10000 nM. `CC(C)(C)CC(=O)c1nc(-c2ccccc2)n2c1CNCC2` [Compound 291, 3,3-dimethyl-1-(3-phenyl-5,6,7,8-tetrahydroimidazo[1,5-a]pyrazin-1-yl)butan-1-one 2,2,2-trifluoroacetate] yielded an EC50 of over 10000 nM. `COC(=O)N1CCn2c(-c3ccc(Cl)cc3)nc(C(=O)N[C@H](CO)C(C)(C)C)c2C1` [Compound 184, (S)-methyl 3-(4-chlorophenyl)-1-(1-hydroxy-3,3-dimethylbutan-2-ylcarbamoyl)-5,6-dihydroimidazo[1,5-a]pyrazine-7(8H)-carboxylate] came in with an EC50 of over 10000 nM. In turn, `CNC(=O)[C@@H](NC(=O)c1nc(-c2ccccc2)n2c1CN(c1ncccn1)CCC2)C(C)(C)C` [Compound 483, (S)-N-(3,3-dimethyl-1-(methylamino)-1-oxobutan-2-yl)-3-phenyl-8-(pyrimidin-2-yl)-6,7,8,9-tetrahydro-5H-imidazo[1,5-a][1,4]diazepine-1-carboxamide] showed an EC50 of over 10000 nM.

Staying with this assay, now noted: agonist or inverse agonist at hCB2.
With `CNC(=O)[C@@H](NC(=O)c1nc(-c2ccc(Br)cc2F)n2c1CN(C)CCC2)C(C)(C)C` [Compound 600, (S)-3-(4-bromo-2-fluorophenyl)-N-(3,3-dimethyl-1-(methylamino)-1-oxobutan-2-yl)-8-methyl-6,7,8,9-tetrahydro-5H-imidazo[1,5-a][1,4]diazepine-1-carboxamide], the “+/− HCB2” value is listed as “+”. Take `CN1CCCn2c(-c3ccc(F)c(F)c3)nc(C(=O)N[C@H](C(N)=O)C(C)(C)C)c2C1` [Compound 581, (S)-N-(1-amino-3,3-dimethyl-1-oxobutan-2-yl)-3-(3,4-difluorophenyl)-8-methyl-6,7,8,9-tetrahydro-5H-imidazo[1,5-a][1,4]diazepine-1-carboxamide]: the “+/− HCB2” value is reported as “+”. For the molecule `CNC(=O)[C@@H](NC(=O)c1nc(-c2ccc(Cl)c(F)c2)n2c1CN(C)CCC2)C(C)(C)C` [Compound 373], the “+/− HCB2” value was “+”.

Consider `CNC(=O)[C@@H](NC(=O)c1nc(-c2cc(C(F)(F)F)ccc2F)n2c1CN(C)CC2)C(C)(C)C` [Compound 245, (S)-N-(3,3-dimethyl-1-(methylamino)-1-oxobutan-2-yl)-3-(2-fluoro-5-(trifluoromethyl)phenyl)-7-methyl-5,6,7,8-tetrahydroimidazo[1,5-a]pyrazine-1-carboxamide], for which the “+/− HCB2” value was “+”. On the same count and under the same terms, the entry for `CNC(=O)[C@@H](NC(=O)c1nc(-c2cc(F)c(OC)cc2F)n2c1CN(C)CCC2)C(C)(C)C` [Compound 424, (S)-3-(2,5-difluoro-4-methoxyphenyl)-N-(3,3-dimethyl-1-(methylamino)-1-oxobutan-2-yl)-8-methyl-6,7,8,9-tetrahydro-5H-imidazo[1,5-a][1,4]diazepine-1-carboxamide] is “+”; for `CNC(=O)[C@@H](NC(=O)c1nc(-c2cc(Cl)ccc2F)n2c1CN(C)CC2)C(C)(C)C` [Compound 246, (S)-3-(5-chloro-2-fluorophenyl)-N-(3,3-dimethyl-1-(methylamino)-1-oxobutan-2-yl)-7-methyl-5,6,7,8-tetrahydroimidazo[1,5-a]pyrazine-1-carboxamide] it is “+”; for `CNC(=O)[C@H](CC(C)C)NC(=O)c1nc(-c2cccc(F)c2)n2c1CN(C)CCC2` [Compound 531, (S)-3-(3-fluorophenyl)-8-methyl-N-(4-methyl-1-(methylamino)-1-oxopentan-2-yl)-6,7,8,9-tetrahydro-5H-imidazo[1,5-a][1,4]diazepine-1-carboxamide] it is “+”. Turning to `CNC(=O)[C@@H](NC(=O)c1nc(-c2ccccc2)n2c1CN(Cc1ccco1)CC2)C(C)(C)C` [Compound 64, (S)-N-(3,3-dimethyl-1-(methylamino)-1-oxobutan-2-yl)-7-(furan-2-ylmethyl)-3-phenyl-5,6,7,8-tetrahydroimidazo[1,5-a]pyrazine-1-carboxamide], the “+/− HCB2” value is listed as “+”. In the case of `CNC(=O)[C@@H](NC(=O)c1nc(C2CCNCC2)n2c1CN(C)CCC2)C(C)(C)C` [Compound 503], the “+/− HCB2” value is given as “+”. Still for that read-out and setting: in the case of `CNC(=O)[C@H](CC(C)C)NC(=O)c1nc(-c2ccc(Cl)cc2F)n2c1CN(C)CCC2` [Compound 529, (S)-3-(4-chloro-2-fluorophenyl)-8-methyl-N-(4-methyl-1-(methylamino)-1-oxopentan-2-yl)-6,7,8,9-tetrahydro-5H-imidazo[1,5-a][1,4]diazepine-1-carboxamide] it was “+”; in that of `CNC(=O)[C@@H](NC(=O)c1nc(-c2ccncc2F)n2c1CN(C)CCC2)C(C)(C)C` [Compound 451, (S)-N-(3,3-dimethyl-1-(methylamino)-1-oxobutan-2-yl)-3-(3-fluoropyridin-4-yl)-8-methyl-6,7,8,9-tetrahydro-5H-imidazo[1,5-a][1,4]diazepine-1-carboxamide], “+”. As for `COC(=O)[C@@H](NC(=O)c1nc(-c2ccc(C)cc2F)n2c1CN(C)CCC2)C(C)(C)C` [Compound 469, (S)-methyl 2-(3-(2-fluoro-4-methylphenyl)-8-methyl-6,7,8,9-tetrahydro-5H-imidazo[1,5-a][1,4]diazepine-1-carboxamido)-3,3-dimethylbutanoate], the “+/− HCB2” value is reported as “+”.

With `CNC(=O)[C@@H](NC(=O)c1nc(-c2ccsc2)n2c1CN(Cc1cncnc1)CC2)C(C)(C)C` [Compound 76, (S)-N-(3,3-dimethyl-1-(methylamino)-1-oxobutan-2-yl)-7-(pyrimidin-5-ylmethyl)-3-(thiophen-3-yl)-5,6,7,8-tetrahydroimidazo[1,5-a]pyrazine-1-carboxamide], the “+/− HCB2” value was “+”.

Take `CNC(=O)[C@@H](NC(=O)c1nc(C2CCCCCC2)n2c1CN(C)CCC2)C(C)(C)C` [Compound 498, (S)-3-cycloheptyl-N-(3,3-dimethyl-1-(methylamino)-1-oxobutan-2-yl)-8-methyl-6,7,8,9-tetrahydro-5H-imidazo[1,5-a][1,4]diazepine-1-carboxamide]: the “+/− HCB2” value was “+”. Same read-out and setting: the entry for `CCC/C=C/c1nc(C(=O)N[C@H](C(=O)NC)C(C)(C)C)c2n1CCCN(C)C2` [Compound 434, (S,E)-N-(3,3-dimethyl-1-(methylamino)-1-oxobutan-2-yl)-8-methyl-3-(pent-1-enyl)-6,7,8,9-tetrahydro-5H-imidazo[1,5-a][1,4]diazepine-1-carboxamide] is “+”. Turning to `CNC(=O)[C@@H](NC(=O)c1nc(/C=C/C(C)(C)C)n2c1CN(C)CC2)C(C)(C)C` [Compound 263, (S,E)-N-(3,3-dimethyl-1-(methylamino)-1-oxobutan-2-yl)-3-(3,3-dimethylbut-1-enyl)-7-methyl-5,6,7,8-tetrahydroimidazo[1,5-a]pyrazine-1-carboxamide], the “+/− HCB2” value was “+”.

On to `CNC(=O)C(NC(=O)c1nc(-c2ccccc2)n2c1CNCCC2)C(C)(C)F` (stereo not drawn) [Compound 604, N-(3-fluoro-3-methyl-1-(methylamino)-1-oxobutan-2-yl)-3-phenyl-6,7,8,9-tetrahydro-5H-imidazo[1,5-a][1,4]diazepine-1-carboxamide], for which the “+/− HCB2” value is “+”. Turning to `CNC(=O)[C@H](CC(C)C)NC(=O)c1nc(-c2ccc(F)cc2F)n2c1CN(C)CCC2` [Compound 534, (S)-3-(2,4-difluorophenyl)-8-methyl-N-(4-methyl-1-(methylamino)-1-oxopentan-2-yl)-6,7,8,9-tetrahydro-5H-imidazo[1,5-a][1,4]diazepine-1-carboxamide], the “+/− HCB2” value is on record as “+”. Regarding `CNC(=O)[C@@H](NC(=O)c1nc(-c2cccnc2)n2c1CN(C)CC2)C(C)(C)C` [Compound 252, (S)-N-(3,3-dimethyl-1-(methylamino)-1-oxobutan-2-yl)-7-methyl-3-(pyridin-3-yl)-5,6,7,8-tetrahydroimidazo[1,5-a]pyrazine-1-carboxamide], the “+/− HCB2” value was “+”.

On to `CNC(=O)[C@@H](NC(=O)c1nc(-c2ccccc2)n2c1CN(C(=O)C(C)(C)C)CC2)C(C)(C)C` [Compound 190, (S)-N-(3,3-dimethyl-1-(methylamino)-1-oxobutan-2-yl)-3-phenyl-7-pivaloyl-5,6,7,8-tetrahydroimidazo[1,5-a]pyrazine-1-carboxamide], for which the “+/− HCB2” value is “−”.

Staying with this assay, now noted: groups >100 nM-10 μM and >10 μM; cAMP, CHO-K1 hCB2; read-out: EC50 HCB2.
Turning to `CC(C)CCNC(=O)c1nc(-c2ccc(Cl)cc2)n2c1CNCC2` [Compound 42, 3-(4-chlorophenyl)-N-isopentyl-5,6,7,8-tetrahydroimidazo[1,5-a]pyrazine-1-carboxamide], the EC50 was over 10000 nM. Same read-out and setting: the figure for `CC(C)CCNC(=O)c1nc(-c2ccc(Cl)cc2)n2c1CN(CCO)CC2` [Compound 159, 3-(4-chlorophenyl)-7-(2-hydroxyethyl)-N-isopentyl-5,6,7,8-tetrahydroimidazo[1,5-a]pyrazine-1-carboxamide] is over 10000 nM. For the molecule `COC(=O)N1CCn2c(-c3ccccc3)nc(C(=O)NN3CCCCC3)c2C1` [Compound 182, methyl 3-phenyl-1-(piperidin-1-ylcarbamoyl)-5,6-dihydroimidazo[1,5-a]pyrazine-7(8H)-carboxylate], the EC50 was over 10000 nM.

Values taken from patent US7517874B2 (priority 2007, dated 2009).
